The other results are listed elsewhere or left out. At the low end of the ranking the order means little.

This assay has as its target T1, GST-Rok (full length) (UniProt O34857).
T1 sequence: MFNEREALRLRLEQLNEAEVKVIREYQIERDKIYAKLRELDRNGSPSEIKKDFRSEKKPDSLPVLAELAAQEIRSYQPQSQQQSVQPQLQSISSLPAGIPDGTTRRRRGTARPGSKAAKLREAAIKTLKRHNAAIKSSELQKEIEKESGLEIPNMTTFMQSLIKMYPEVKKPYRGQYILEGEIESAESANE
Description: protein binding microarray.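 Also: rank score from −0.5 (least bound) to 0.5 (best bound).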 The following applies: Rok is a gene silencer of Bacillus subtilis; high values mean tight binding; most listed sequences are background and not binding sites; double strand, one strand shown.
Take CGCAGGCC: the binding signal is -0.346 E-score. Consider GAGTTCAA, for which the binding signal was -0.0299 E-score.

For the sequence AGCGCCGA, the binding signal was -0.244 E-score.

The sequence CTGGTAGC registered a binding signal of 0.13 E-score. For the sequence CGTAACCC, the binding signal was -0.19 E-score.

For ACCCTTCC, the binding signal is -0.327 E-score. In the case of AGTGCTCA it was 0.00402 E-score. For ATCGCACA, the binding signal is -0.131 E-score. ACCACAGG: the binding signal was -0.127 E-score. In the case of ATTGGATC it was -0.00455 E-score; in that of CTCACGGC, -0.0922 E-score; in that of AAAACACG, 0.154 E-score. In the case of CCCTAGAG it was -0.181 E-score. In the case of CGGCGAAA it was -0.0329 E-score; in that of ATATGATG, 0.316 E-score; in that of AAGACTGT, 0.0852 E-score. Turning to ACTTTCGC, the binding signal came to 0.11 E-score.

The sequence AGATCTTA gave a binding signal of 0.215 E-score. For CCACCTTA, the binding signal was -0.143 E-score.

In the case of ATATTGAT, the binding signal stood at 0.316 E-score. In the case of GAGGCGAA, the binding signal is -0.0953 E-score. Sequence CGATGTTA had a binding signal of 0.0449 E-score.

Turning to GATTGCCA, the binding signal is -0.0629 E-score. In the case of GATAATCA it was 0.101 E-score; in that of AGAGCATG, -0.101 E-score. In the case of GAGCCGTA it was -0.0838 E-score; in that of CTACACTC, -0.0726 E-score; in that of GTCTTGCA, -0.0304 E-score.

For the sequence AGGCACAC, the binding signal is -0.233 E-score. As to GGCTGTAC, the binding signal is -0.102 E-score.

On to CAGGACCC, for which the binding signal was -0.285 E-score.

Regarding GGCGACAA, the binding signal is -0.145 E-score.

For the sequence GTATACAC, the binding signal turned out to be 0.218 E-score. On to CCCTGCTC, for which the binding signal was -0.27 E-score. For the sequence CCGGTCTA, the binding signal is -0.0179 E-score. On to CTGAGGGA, for which the binding signal is -0.242 E-score.

With AACCAGAG, the binding signal is -0.187 E-score. The sequence AGAAAAAT returned a binding signal of 0.138 E-score. CACTTATA yielded a binding signal of 0.329 E-score. In the case of CTCCCATA, the binding signal is -0.148 E-score. Take AGCCAGGC: the binding signal is -0.355 E-score.

Consider ATAATCCG, for which the binding signal came to 0.0239 E-score. For ATGGGCAG, the binding signal was -0.0688 E-score.

Consider AGGCAAGG, for which the binding signal is -0.428 E-score. AACGGTAT displayed a binding signal of 0.211 E-score. Turning to AATTCGAT, the binding signal turned out to be 0.104 E-score. As for CATGCCCG, the binding signal was -0.316 E-score.

In the case of CCCTCGTA, the binding signal is -0.134 E-score. As to CGCTCCGA, the binding signal was -0.25 E-score.

Sequence AAGAAAAG gave a binding signal of 0.064 E-score. CTAGTCGA: the binding signal was 0.262 E-score. With ACTTGCAG, the binding signal was found to be 0.0388 E-score. On to ACAACTAA, for which the binding signal was 0.251 E-score. With ACCCCGTA, the binding signal was -0.174 E-score. In the case of AGTAGAAG it was 0.228 E-score. On to AGAGTTCG, for which the binding signal was -0.0759 E-score. Turning to GCTCAGAA, the binding signal was -0.124 E-score. In the case of CCGTGGGC it was -0.363 E-score; in that of ACACAGGT, -0.0293 E-score. Turning to AGGTTCGC, the binding signal is -0.173 E-score.

For TCAGTGAA, the binding signal was -0.2 E-score. As for GATTTTAC, the binding signal came to 0.18 E-score.

For CTGGGTAC, the binding signal was -0.102 E-score. Take CCGTAGCG: the binding signal was 0.0211 E-score. In the case of AGTCTAGC it was 0.0454 E-score; in that of CACCCACC, 0.0542 E-score.

In the case of CTCCACCC, the binding signal was -0.287 E-score. As to AGTGCGCC, the binding signal was -0.237 E-score.

In the case of AGCCACAC, the binding signal is -0.288 E-score. For CTCTTAGA, the binding signal is -0.265 E-score. In the case of GATGATCA, the binding signal is -0.0224 E-score.

With AGGCCTCA, the binding signal is -0.155 E-score. Consider GATAGAGC, for which the binding signal was -0.173 E-score. For ACGACAAT, the binding signal was 0.0926 E-score. Turning to GAATGAAA, the binding signal is -0.00799 E-score.

With CCCCCTTC, the binding signal was -0.384 E-score. CCCGATTC: the binding signal is -0.238 E-score. In turn, ACAATAAT yielded a binding signal of 0.262 E-score. AGTGCAAC: the binding signal is -0.235 E-score. For the sequence ACATTCCA, the binding signal amounted to 0.0173 E-score. With CAAAGGTG, the binding signal was -0.263 E-score. For the sequence GGCAAACA, the binding signal was -0.145 E-score. On to CAGACTCA, for which the binding signal is -0.163 E-score. AAGTTCGT: the binding signal amounted to 0.129 E-score. CACTGATA: the binding signal was -0.0773 E-score. TAGCACTA: the binding signal was 0.21 E-score. Turning to ACCGACTC, the binding signal was -0.0931 E-score. In the case of CCTCCTAA it was -0.164 E-score; in that of GCACTCCC, -0.318 E-score; in that of AAACTCTG, 0.137 E-score. CTTCCATA: the binding signal stood at 0.121 E-score. In the case of ACTGGTGA it was -0.0538 E-score; in that of CGATTAAA, 0.0882 E-score; in that of ACATGCCA, 0.0568 E-score. As for ATTCGTCC, the binding signal is -0.224 E-score. In the case of GGCTACCA it was 0.216 E-score.

As for ATTCGCAG, the binding signal is 0.161 E-score.

For the sequence TTGAGCAA, the binding signal was -0.0216 E-score.

On to CATTCGGA, for which the binding signal was -0.0335 E-score. In the case of ATTAATGC it was 0.332 E-score; in that of AGGGACCG, -0.394 E-score. In the case of GGGCATAA it was -0.0617 E-score. In the case of CTTCGAAA it was -0.139 E-score.

In turn, ATAACACG yielded a binding signal of 0.22 E-score.

Turning to TAACTCCA, the binding signal is 0.0342 E-score. For the sequence CTGAGCAG, the binding signal was -0.179 E-score.

GAATTCGA displayed a binding signal of 0.253 E-score. TAACCACA had a binding signal of 0.108 E-score. Regarding AGTCCTCC, the binding signal was -0.288 E-score. Regarding ACAACTCA, the binding signal worked out at 0.097 E-score.

Sequence AGTACACC came in with a binding signal of 0.164 E-score. Consider CCTTGGAG, for which the binding signal is -0.117 E-score. Consider CAGCCAGA, for which the binding signal is -0.104 E-score. In the case of ACCTATCT it was 0.332 E-score; in that of ATCGGTTA, 0.00622 E-score. In the case of CACGTTTA, the binding signal came out at 0.0471 E-score. With AGGTGTTG, the binding signal was 0.0952 E-score. GCTTCCTA displayed a binding signal of 0.0871 E-score.

ATATTGAG returned a binding signal of 0.21 E-score. As for ATAGACCC, the binding signal is -0.0819 E-score. In the case of CCAAATTA it was 0.249 E-score. As to ATGAGCCA, the binding signal is -0.137 E-score. ACTCGAGC: the binding signal is -0.0141 E-score. As to ACAGGCAC, the binding signal is -0.282 E-score. In the case of CAAACTAA it was 0.378 E-score; in that of CCTACTGC, 0.174 E-score. For CGGATTAA, the binding signal turned out to be 0.0745 E-score. With AGGGGGCA, the binding signal was -0.218 E-score. In the case of AAGCACGC it was -0.0861 E-score; in that of GAGTAGAC, -0.133 E-score; in that of CTGTGAAA, -0.0415 E-score. In the case of CGTGTGGC it was -0.101 E-score. For the sequence CCTCCCGA, the binding signal was -0.258 E-score. In the case of CTGTATAC it was 0.216 E-score. Regarding CGGGCCAA, the binding signal is -0.208 E-score.

On to GTCCCGAA, for which the binding signal was -0.0443 E-score. In the case of CATACTCA it was 0.223 E-score; in that of ACAAGGGC, -0.212 E-score; in that of TAATATCA, 0.338 E-score. In the case of AACATTCG it was 0.0196 E-score; in that of ATCCTCTA, 0.0332 E-score; in that of CTTATTTC, 0.192 E-score.

With CTTTCCCA, the binding signal was -0.248 E-score.

With CAGAAGCC, the binding signal was -0.306 E-score. In the case of CTAAGTAC it was 0.171 E-score. On to CGAATGCG, for which the binding signal is -0.134 E-score. Regarding ACAGTGAG, the binding signal is -0.00295 E-score. As to GGAGTCCC, the binding signal was -0.289 E-score.

As to CAATCACC, the binding signal is -0.0817 E-score. As to GTATCCCA, the binding signal is 0.131 E-score.

Turning to ACTGTCCG, the binding signal is -0.0982 E-score.

With CACTACCC, the binding signal is -0.0231 E-score. For ACGCCTTG, the binding signal was -0.298 E-score.

In the case of CCCTATCC, the binding signal was -0.189 E-score. With CACCCAGC, the binding signal turned out to be 0.0934 E-score. The sequence GCTACCAC showed a binding signal of 0.188 E-score. In the case of AGGCAATG it was -0.145 E-score. In the case of CCTCCTCG it was -0.224 E-score; in that of AGGCCCAG, -0.121 E-score; in that of TGAACAAA, -0.0466 E-score. Take AAGACATC: the binding signal was -0.0531 E-score.

Turning to CCGGAGAG, the binding signal is -0.227 E-score. In the case of TCTTAAGA it was 0.00924 E-score. For the sequence CAGGGATA, the binding signal is -0.0119 E-score. As for CCGAAGAC, the binding signal was -0.161 E-score. In the case of ACATTGGC it was -0.239 E-score; in that of ACACAAAA, 0.117 E-score; in that of TAATACTA, 0.419 E-score. ATTTGTCA yielded a binding signal of 0.14 E-score. As for ACCCGACG, the binding signal was -0.304 E-score. In the case of ACCCCCCG it was -0.422 E-score; in that of ACCACAGC, -0.0851 E-score.

Values taken from publication PMC6212790.
